Some of the results follow.
Target: T1, OsWOX13 (Oryza sativa, UniProt Q5QMM3 1-267)
T1 sequence: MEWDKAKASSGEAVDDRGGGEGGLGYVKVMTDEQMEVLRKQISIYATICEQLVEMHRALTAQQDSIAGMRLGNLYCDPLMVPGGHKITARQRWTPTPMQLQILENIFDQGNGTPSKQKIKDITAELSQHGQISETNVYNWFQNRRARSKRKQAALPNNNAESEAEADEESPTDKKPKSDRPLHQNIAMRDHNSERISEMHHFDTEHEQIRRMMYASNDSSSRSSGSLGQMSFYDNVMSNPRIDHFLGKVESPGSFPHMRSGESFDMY
Experiment: protein-binding microarray (RPBM); PBS, 2% BSA, 51.3 ng/ul salmon testes DNA, 50 uM zinc acetate, 200 nM TF, 25 C, 1 h; high values mean tight binding
Details: protein: recombinant; tags: N-terminal polyhistidine and DsRed monomer fusion (pET32a); label: CyDye5-dUTP incorporated in the synthesized complementary strand; 3' TTTTT single-stranded linker to array surface; dsDNA, one strand shown
Outline: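 Polyhistidine-tagged DsRed fusions of transcription factors, joined at the N-terminus, were expressed in E. coli BL21-CodonPlus and isolated on Ni–NTA. They were incubated at 200 nM for 1 h at 25 °C on a custom Agilent array, double-stranded and BSA-blocked, in PBS with 2% BSA, salmon testes DNA and 50 µM zinc acetate. The binding signal is per-feature fluorescence intensity (arbitrary units) read on an Axon 4000B scanner after washing.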

Sequence	binding signal
CATCTTGATTATGTTACATACAGATTGCAGGATGGATATTCGGAGTCACCTAGTGCAG	23000 fluorescence intensity (a.u.)
TATATATATATATATATATATATATATATGATAATTTGTTCGGAGTCACCTAGTGCAG	8270 fluorescence intensity (a.u.)
GGGGCATTTTGAAATGGATGATTTGAACCGATTATAAAAGCGGAGTCACCTAGTGCAG	3980 fluorescence intensity (a.u.)
AATTACAATGTAATTATATCACGATTATATTATTACTTACCGGAGTCACCTAGTGCAG	11000 fluorescence intensity (a.u.)
ATAGATGACATTTATGTAATTTATTTTCATAAGACGAATGCGGAGTCACCTAGTGCAG	21900 fluorescence intensity (a.u.)
CGTTGATTTTATTTGGCAGGGAAGGAGATCCGAGAGGAAGCGGAGTCACCTAGTGCAG	18800 fluorescence intensity (a.u.)
CTGACCAACGTTGATAATTGCAATATTATAGTTATGGTGACGGAGTCACCTAGTGCAG	4410 fluorescence intensity (a.u.)
TCTGATTTCAGTGGGAATGCATCTCTTTTCCAGCGGATCACGGAGTCACCTAGTGCAG	4850 fluorescence intensity (a.u.)
AAATAAATTTGACGTGAAGTGGAATGACAGCTGGTGAACTCGGAGTCACCTAGTGCAG	11400 fluorescence intensity (a.u.)
ATTGTGTGATTTATCTTGTTTTAAAGATTTAATTGCCATGCGGAGTCACCTAGTGCAG	18400 fluorescence intensity (a.u.)
GTATAATTGGAGTTTGTAAAGTTCGTTTCTTGTAAGGGAACGGAGTCACCTAGTGCAG	36800 fluorescence intensity (a.u.)
TGATTAATTAGCGAGAGTAATTAATTAATTATAGCCTGCGCGGAGTCACCTAGTGCAG	61600 fluorescence intensity (a.u.)
ATTTAACGTGATAACTGTTTGTTTCAATGGATATCTAATGCGGAGTCACCTAGTGCAG	6540 fluorescence intensity (a.u.)
AGCATAAGTTATCTGAGTTAATTACAGTTGCTCAGCATTCCGGAGTCACCTAGTGCAG	4180 fluorescence intensity (a.u.)
ATGCTCACTGATTTAATTTGAAATCGTTGCTCCATTTCACCGGAGTCACCTAGTGCAG	21900 fluorescence intensity (a.u.)
TTAGTAATTGAACTTGATTCTCTCTTCGTTTCAGGTTATACGGAGTCACCTAGTGCAG	44300 fluorescence intensity (a.u.)
ATTGACATGGAGTCATGGACACTCTCCCTGCCTCCTCCCTCGGAGTCACCTAGTGCAG	3240 fluorescence intensity (a.u.)
AGTCAATCAGTCAATCTGGACCGTCCACGGCAGAAGAAGTCGGAGTCACCTAGTGCAG	30700 fluorescence intensity (a.u.)
ATATTAATTTACTCCAATTTATATACTCCACGACAGGAGCCGGAGTCACCTAGTGCAG	39500 fluorescence intensity (a.u.)
AAGAAGATTAGAATGAAACCATCGAAAAGCCTCGTTCGTCCGGAGTCACCTAGTGCAG	5250 fluorescence intensity (a.u.)
ACATTTTAATTTGTAGGGAGAGGTACTATGGGCTTAACTTCGGAGTCACCTAGTGCAG	6450 fluorescence intensity (a.u.)
GTCATCTGATTGTCGTCCATTGTCTCAGTGTCTGTCTGTCCGGAGTCACCTAGTGCAG	17800 fluorescence intensity (a.u.)
GATTAGCTTTGTGATTAGTAAGCAACTTAACACAAGATAGCGGAGTCACCTAGTGCAG	5060 fluorescence intensity (a.u.)
TCGTTCTTCATGGTTGGGGCTGATTAGGTTGATGAGATAGCGGAGTCACCTAGTGCAG	3850 fluorescence intensity (a.u.)
CCTGAGCAATCATGTGTCTTATATATTTGCCATGATGCATCGGAGTCACCTAGTGCAG	6770 fluorescence intensity (a.u.)
TGATTTATTAATTACACATATGATTTAAGTTCTAAATGATCGGAGTCACCTAGTGCAG	30600 fluorescence intensity (a.u.)
ACCATAATTACATCTGTCAAATTTCTAGAAGAAAAGTTGTCGGAGTCACCTAGTGCAG	42200 fluorescence intensity (a.u.)

Sequence	binding signal
GGTTAATTGTGGATCGGGTGCGCCGTGATGGTGCGTGCACCGGAGTCACCTAGTGCAG	30100 fluorescence intensity (a.u.)
TGCTCTAAATTTTCTTATTAATTTTATGATCTTGTGATGGCGGAGTCACCTAGTGCAG	9820 fluorescence intensity (a.u.)
CTTGCTGGTACCAATTAACATGGGTATGTTTAATTTGCTGCGGAGTCACCTAGTGCAG	3650 fluorescence intensity (a.u.)
GCAAATCGTTAATTGACATGTCAAGAGAGTGGCAAATAGTCGGAGTCACCTAGTGCAG	49400 fluorescence intensity (a.u.)
CACTCTTGTGACATGGCAATTAACGATTTGCCACGCTCTGCGGAGTCACCTAGTGCAG	9520 fluorescence intensity (a.u.)
CCATGATGAATTCCTGATTTTCCTATCTTCAGCAAAAGCACGGAGTCACCTAGTGCAG	7460 fluorescence intensity (a.u.)
ACTAATAATTGGCTATACTATTAAACCTGCTCTAATTAATCGGAGTCACCTAGTGCAG	24000 fluorescence intensity (a.u.)
CCATTTAGCAATTATTAATTGCTCCCCAACTCCAACTCCACGGAGTCACCTAGTGCAG	22200 fluorescence intensity (a.u.)
CCTAATTGCGCCATGATTTGAAAGCAAATAAATAAATAAACGGAGTCACCTAGTGCAG	13500 fluorescence intensity (a.u.)
TTTAAATTCTATTAATATAATCTTTTAAAGTAACTTCGTTCGGAGTCACCTAGTGCAG	5170 fluorescence intensity (a.u.)
TTTTATAATTGTTCATATCGCCGATGCTTATAATCATCTCCGGAGTCACCTAGTGCAG	7080 fluorescence intensity (a.u.)
ACAGCCAGTTGATATCAAGATTGACGCAAAATTGAATATACGGAGTCACCTAGTGCAG	6650 fluorescence intensity (a.u.)
CAAGTGCTAATCAATATATCCAACTCACTATAATTTTGGTCGGAGTCACCTAGTGCAG	5230 fluorescence intensity (a.u.)
CGATTCTAAATTGCTACTCCCTCCGTCCCATAATATAAGGCGGAGTCACCTAGTGCAG	4420 fluorescence intensity (a.u.)
GGTGACAGTTTGGTTAGTGACAAATAGTTACATTCTCGTTCGGAGTCACCTAGTGCAG	5070 fluorescence intensity (a.u.)
GCTAATTAAAAGAATTCCGTGGATTACATGGAACCTGATACGGAGTCACCTAGTGCAG	19600 fluorescence intensity (a.u.)
ATACGCAAATTTTAAATTGCAAATGAACATCACATATTGGCGGAGTCACCTAGTGCAG	8860 fluorescence intensity (a.u.)
TAAATTAGTGTCTAACTAAAGTTAAGTCACTAGATCCAAACGGAGTCACCTAGTGCAG	4220 fluorescence intensity (a.u.)
AGTCACATCCACCCAATCAAACACACCCTAACATTTGGAACGGAGTCACCTAGTGCAG	4230 fluorescence intensity (a.u.)
CGTTATAATTGATCTCCCGTTGAAACAGAATCCTGTGGTGCGGAGTCACCTAGTGCAG	30300 fluorescence intensity (a.u.)
AGGTTCAATCAACTCATCTTGTCTATTGAAACTCTTCTCGCGGAGTCACCTAGTGCAG	30500 fluorescence intensity (a.u.)
ATACGTATAATTTATAAGTAATTAATGGCAAAAGTTCACACGGAGTCACCTAGTGCAG	13400 fluorescence intensity (a.u.)
CAACCGGTTGAACCAATCAAACCATGAACCGAGGCTATGACGGAGTCACCTAGTGCAG	3290 fluorescence intensity (a.u.)
ACGACCCGTCAATTAATCCAGAGAACACGGACTGCGTCAGCGGAGTCACCTAGTGCAG	9600 fluorescence intensity (a.u.)
TACTTTAATTTTGGATAGACTAGTTCTTCCATGCTTTGCTCGGAGTCACCTAGTGCAG	10000 fluorescence intensity (a.u.)
CCCTCTTGACAGAGCACTACTCAAGTCCCTGTATATATCCCGGAGTCACCTAGTGCAG	4540 fluorescence intensity (a.u.)
CTAATAATTAATTGTTGTTGCATGAGAGCCAACACGTACGCGGAGTCACCTAGTGCAG	33000 fluorescence intensity (a.u.)

Source: paper PMC7819943, “Rice protein-binding microarrays: a tool to detect cis-acting elements near promoter regions in rice”
